# The list shows a part of the results.
# B1: Si Bti9 1b-V5-his (Solanum lycopersicum) (protein)
# chain: MQCNRGCDLALASFYVWRGSNLTLISEMFSTSIADIVSYNNRDNIPNQDSVIAGTRINIPFRCDCLNDGEVLGHAFPYRVKSGDTYDLVARNYSDLTTAQWMMKFNSYPENNIPNTVNLSVVVNCSCGNSDVSKDFGLFVTYPVRAEDNLTSVASAANVSEDIIRRYNPAAVSILDIGQGIIYIPGRDRNGNFPPLPTSTDGLSGGAKKGGRADPAFLYKVVINSKLEGKPIPNPLLGLDSTRTGHHHHHH
# How the values were obtained:
# Test in all cases: glycan array binding signal (z-score within array); higher = stronger binding
# Details in all cases: glycan notation: IUPAC condensed, linker removed
# [1] = biological target: Fuc(a1-2)Gal(b1-4)[Fuc(a1-3)]GlcNAc(b1-2)Man(a1-3)[Fuc(a1-2)Gal(b1-4)[Fuc(a1-3)]GlcNAc(b1-2)Man(a1-6)]Man(b1-4)GlcNAc(b1-4)[Fuc(a1-6)]GlcNAc
# Procedure, shortened: (§1)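 The binding signal is a Z-score computed within each array and averaged over linkers. Arrays of the same protein sequence at different concentrations or buffers were also averaged together. Data originate from 3228 arrays in the Consortium for Functional Glycomics database, kept only where the protein sequence was available.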
# [2] = biological target: Fuc(a1-2)Gal(b1-4)[Fuc(a1-3)]GlcNAc(b1-2)[Fuc(a1-2)Gal(b1-4)[Fuc(a1-3)]GlcNAc(b1-4)]Man(a1-3)[Fuc(a1-2)Gal(b1-4)[Fuc(a1-3)]GlcNAc(b1-2)Man(a1-6)]Man(b1-4)GlcNAc(b1-4)GlcNAc
# Procedure, shortened: as §1
# [3] = biological target: Fuc(a1-2)Gal(b1-4)[Fuc(a1-3)]GlcNAc(b1-3)Gal(b1-4)[Fuc(a1-3)]GlcNAc
# Procedure, shortened: as §1
# [4] = biological target: Fuc(a1-2)Gal(b1-4)[Fuc(a1-3)]GlcNAc(b1-3)Gal(b1-4)[Fuc(a1-3)]GlcNAc(b1-3)Gal(b1-4)[Fuc(a1-3)]GlcNAc
# Procedure, shortened: as §1
# [5] = biological target: Fuc(a1-2)Gal(b1-4)[Fuc(a1-3)]GlcNAc(b1-3)GalNAc
# Procedure, shortened: as §1
# [6] = biological target: Fuc(a1-2)Gal(b1-4)[Fuc(a1-3)]GlcNAc(b1-3)[Neu5Ac(a2-6)Gal(b1-4)GlcNAc(b1-6)]Gal(b1-4)Glc
# Procedure, shortened: as §1
# [7] = biological target: Fuc(a1-2)Gal3S(b1-4)GlcNAc
# Procedure, shortened: as §1
# [8] = biological target: Fuc(a1-2)Gal6S(b1-3)GlcNAc
# Procedure, shortened: as §1
# [9] = biological target: Fuc(a1-2)Gal6S(b1-3)GlcNAc6S
# Procedure, shortened: as §1
# [10] = biological target: Fuc(a1-2)Gal6S(b1-4)Glc
# Procedure, shortened: as §1
# [11] = biological target: Fuc(a1-2)Gal6S(b1-4)Glc6S
# Procedure, shortened: as §1
# [12] = biological target: Fuc(a1-2)[Gal(a1-3)]Gal
# Procedure, shortened: as §1
# [13] = biological target: Fuc(a1-2)[Gal(a1-3)]Gal(b1-3)GalNAc
# Procedure, shortened: as §1
# [14] = biological target: Fuc(a1-2)[Gal(a1-3)]Gal(b1-3)GalNAc(b1-3)Gal(a1-4)Gal(b1-4)Glc
# Procedure, shortened: as §1
# [15] = biological target: Fuc(a1-2)[Gal(a1-3)]Gal(b1-3)GlcNAc
# Procedure, shortened: as §1
# [16] = biological target: Fuc(a1-2)[Gal(a1-3)]Gal(b1-3)GlcNAc(b1-2)Man(a1-3)[Fuc(a1-2)[Gal(a1-3)]Gal(b1-3)GlcNAc(b1-2)Man(a1-6)]Man(b1-4)GlcNAc(b1-4)GlcNAc
# Procedure, shortened: as §1
# [17] = biological target: Fuc(a1-2)[Gal(a1-3)]Gal(b1-3)GlcNAc(b1-2)Man(a1-3)[Fuc(a1-2)[Gal(a1-3)]Gal(b1-3)GlcNAc(b1-2)Man(a1-6)]Man(b1-4)GlcNAc(b1-4)[Fuc(a1-6)]GlcNAc
# Procedure, shortened: as §1
# [18] = biological target: Fuc(a1-2)[Gal(a1-3)]Gal(b1-3)GlcNAc(b1-3)GalNAc
# Procedure, shortened: as §1
# [19] = biological target: Fuc(a1-2)[Gal(a1-3)]Gal(b1-3)GlcNAc(b1-6)GalNAc
# Procedure, shortened: as §1
# [20] = biological target: Fuc(a1-2)[Gal(a1-3)]Gal(b1-4)Glc
# Procedure, shortened: as §1
# [21] = biological target: Fuc(a1-2)[Gal(a1-3)]Gal(b1-4)GlcNAc
# Procedure, shortened: as §1
# [22] = biological target: Fuc(a1-2)[Gal(a1-3)]Gal(b1-4)GlcNAc(b1-2)Man
# Procedure, shortened: as §1
# [23] = biological target: Fuc(a1-2)[Gal(a1-3)]Gal(b1-4)GlcNAc(b1-2)Man(a1-3)[Fuc(a1-2)[Gal(a1-3)]Gal(b1-4)GlcNAc(b1-2)Man(a1-6)]Man(b1-4)GlcNAc(b1-4)GlcNAc
# Procedure, shortened: as §1
# [24] = biological target: Fuc(a1-2)[Gal(a1-3)]Gal(b1-4)GlcNAc(b1-2)Man(a1-3)[Fuc(a1-2)[Gal(a1-3)]Gal(b1-4)GlcNAc(b1-2)Man(a1-6)]Man(b1-4)GlcNAc(b1-4)[Fuc(a1-6)]GlcNAc
# Procedure, shortened: as §1
# [25] = biological target: Fuc(a1-2)[Gal(a1-3)]Gal(b1-4)GlcNAc(b1-3)GalNAc
# Procedure, shortened: as §1
# [26] = biological target: Fuc(a1-2)[Gal(a1-3)]Gal(b1-4)GlcNAc(b1-3)[Fuc(a1-2)[Gal(a1-3)]Gal(b1-4)GlcNAc(b1-6)]GalNAc
# Procedure, shortened: as §1
# [27] = biological target: Fuc(a1-2)[Gal(a1-3)]Gal(b1-4)GlcNAc(b1-6)GalNAc
# Procedure, shortened: as §1
# [28] = biological target: Fuc(a1-2)[Gal(a1-3)]Gal(b1-4)[Fuc(a1-3)]Glc
# Procedure, shortened: as §1
# [29] = biological target: Fuc(a1-2)[Gal(a1-3)]Gal(b1-4)[Fuc(a1-3)]GlcNAc
# Procedure, shortened: as §1
# [30] = biological target: Fuc(a1-2)[Gal(a1-3)]Gal(b1-4)[Fuc(a1-3)]GlcNAc(b1-3)GalNAc
# Procedure, shortened: as §1
# [31] = biological target: Fuc(a1-2)[Gal(a1-4)]Gal(b1-4)GlcNAc
# Procedure, shortened: as §1
# [32] = biological target: Fuc(a1-2)[GalNAc(a1-3)]Gal
# Procedure, shortened: as §1
# [33] = biological target: Fuc(a1-2)[GalNAc(a1-3)]Gal(b1-3)GalNAc(a1-3)[Fuc(a1-2)]Gal(b1-4)GlcNAc
# Procedure, shortened: as §1
# [34] = biological target: Fuc(a1-2)[GalNAc(a1-3)]Gal(b1-3)GalNAc(b1-3)Gal(a1-4)Gal(b1-4)Glc
# Procedure, shortened: as §1
# [35] = biological target: Fuc(a1-2)[GalNAc(a1-3)]Gal(b1-3)GlcNAc
# Procedure, shortened: as §1
# [36] = biological target: Fuc(a1-2)[GalNAc(a1-3)]Gal(b1-3)GlcNAc(b1-2)Man(a1-3)[Fuc(a1-2)[GalNAc(a1-3)]Gal(b1-3)GlcNAc(b1-2)Man(a1-6)]Man(b1-4)GlcNAc(b1-4)GlcNAc
# Procedure, shortened: as §1
# [37] = biological target: Fuc(a1-2)[GalNAc(a1-3)]Gal(b1-3)GlcNAc(b1-2)Man(a1-3)[Fuc(a1-2)[GalNAc(a1-3)]Gal(b1-3)GlcNAc(b1-2)Man(a1-6)]Man(b1-4)GlcNAc(b1-4)[Fuc(a1-6)]GlcNAc
# Procedure, shortened: as §1
# [38] = biological target: Fuc(a1-2)[GalNAc(a1-3)]Gal(b1-3)GlcNAc(b1-3)GalNAc
# Procedure, shortened: as §1
binder,measurement,setting,value
B1,glycan array binding signal (z-score),[1],0.091
same,glycan array binding signal (z-score),[2],0.037
same,glycan array binding signal (z-score),[3],-0.363
same,glycan array binding signal (z-score),[4],0.047
same,glycan array binding signal (z-score),[5],-0.079
same,glycan array binding signal (z-score),[6],-0.28
same,glycan array binding signal (z-score),[7],-0.259
same,glycan array binding signal (z-score),[8],-0.245
same,glycan array binding signal (z-score),[9],-0.212
same,glycan array binding signal (z-score),[10],-0.136
same,glycan array binding signal (z-score),[11],-0.323
same,glycan array binding signal (z-score),[12],-0.187
same,glycan array binding signal (z-score),[13],-0.193
same,glycan array binding signal (z-score),[14],-0.264
same,glycan array binding signal (z-score),[15],1.15
same,glycan array binding signal (z-score),[16],0.087
same,glycan array binding signal (z-score),[17],-0.157
same,glycan array binding signal (z-score),[18],-0.161
same,glycan array binding signal (z-score),[19],-0.283
same,glycan array binding signal (z-score),[20],0.314
same,glycan array binding signal (z-score),[21],-0.371
same,glycan array binding signal (z-score),[22],0.112
same,glycan array binding signal (z-score),[23],-0.008
same,glycan array binding signal (z-score),[24],-0.131
same,glycan array binding signal (z-score),[25],-0.156
same,glycan array binding signal (z-score),[26],0.089
same,glycan array binding signal (z-score),[27],-0.291
same,glycan array binding signal (z-score),[28],-0.298
same,glycan array binding signal (z-score),[29],-0.394
same,glycan array binding signal (z-score),[30],-0.233
same,glycan array binding signal (z-score),[31],-0.37
same,glycan array binding signal (z-score),[32],-0.167
same,glycan array binding signal (z-score),[33],-0.268
same,glycan array binding signal (z-score),[34],-0.335
same,glycan array binding signal (z-score),[35],-0.322
same,glycan array binding signal (z-score),[36],0.024
same,glycan array binding signal (z-score),[37],-0.076
same,glycan array binding signal (z-score),[38],0.117

# — the supplement of paper PMC8728848
